In ChEMBL document CHEMBL4888484, “Replenishing the malaria drug discovery pipeline: Screening and hit evaluation of the MMV Hit Generation Library 1 (HGL1) against asexual blood stage Plasmodium falciparum ,using a nano luciferase reporter read-out” (2022):
Out of some 150,000 compounds screened, about 540 (0.36%) showed an effect of 50% or more. This is one part of the list.

What follows are molecules tested on Plasmodium falciparum (assay: Primary screen in NF54 nanoGlo assay, in single point, at 2uM, 72h; a lower Z score goes with more inhibition). Conditions: timepoint 72 hour.
Format: functional, Erythrocyte
With `COc1ccc(CNC[C@H]2O[C@H](Cc3cc(CN(C)C)on3)CC[C@@H]2O)cc1` the “% Inhibition” value was 0% and the Z score was 0.07. For `COc1cccc(Cn2c(=O)c(C(=O)NCc3ccncc3)nn(-c3ccc(C)c(C)c3)c2=O)c1`, the “% Inhibition” value was -9% and the Z score was 1.44. With `COc1ccc(/C=C/c2cc(/C=C/c3ccc(OC)cc3)nc(-c3ccc(OC)cc3)n2)cc1` the “% Inhibition” value was -9% and the Z score was 1.22. In the case of `COCCN1CC2(CCC1=O)CCN(C(=O)c1cn3cccnc3n1)CC2`, the “% Inhibition” value is reported as 1% and the Z score is reported as -0.09. In the case of `Cc1cccc(CN2C[C@@H](O)C[C@H]2c2nnc3n2CCN(C(=O)C(C)C)C3)c1`, the “% Inhibition” value is reported as 4% and the Z score is reported as -0.68. With `C[C@@H](CC#CCN1CCOCC1)OC(C)(C)C` the “% Inhibition” value was -16% and the Z score was 2.55. With `COc1ccccc1-c1nc2ccc(C)cn2c1NC(=O)Nc1ccc(C)cc1` the “% Inhibition” value was -1% and the Z score was 0.13. In the case of `CC[C@H]1CN(c2ncnc3c2Cc2ccccc2OC3)CCO1`, the “% Inhibition” value is reported as -10% and the Z score is reported as 1.32. `Cc1cc2cc(NC(=O)c3ccc(C)c(NC(=O)[C@@H]4CCCO4)c3)ccc2o1` was tested, and the “% Inhibition” value was 5% and the Z score was -0.71. `Cc1nccn1C1(C(=O)O)CCN(Cc2ccccc2C#N)CC1` was tested, and the “% Inhibition” value was -2% and the Z score was 0.33. With `CCN(CC)C(=O)NC1CCN(c2cccnn2)CC1` the “% Inhibition” value was -7% and the Z score was 0.76. For `Cn1ncc(-c2ccccc2)c1NC(=O)Cn1ncc2cccnc21`, the “% Inhibition” value was -9% and the Z score was 1.8. In the case of `Cc1cncc(C(=O)N2CC(O)CC2CO)c1` (stereo not drawn), the “% Inhibition” value is reported as -1% and the Z score is reported as 0.1. For `O=C1c2ccccc2C(=O)N1CC#CCN1CCOCC1`, the “% Inhibition” value was -2% and the Z score was 0.38. For `O=C1Nc2ccccc2CC[C@@H]1N1CCc2sccc2C1`, the “% Inhibition” value was -8% and the Z score was 1.19. With `CN1CC[C@@]2(CCC1=O)CN(C(=O)CCc1ccc(F)cc1F)CCN2C` the “% Inhibition” value was -14% and the Z score was 1.6. In the case of `CC1CCN(C(=O)c2ccc3nnnn3c2)CC1`, the “% Inhibition” value is reported as 25% and the Z score is reported as -2.78. With `O=C(c1ccccc1)N1CCC(c2ccn3ncc(C(=O)N4CCCC4)c3c2)CC1` the “% Inhibition” value was -11% and the Z score was 1.83. With `CC(C)(CNc1cccc(-n2cnnc2)c1)c1ccccc1` the “% Inhibition” value was -3% and the Z score was 0.62. `Cc1cc(C)cc(-n2ncc3c(OCc4c(C)noc4C)ncnc32)c1` was tested, and the “% Inhibition” value was -14% and the Z score was 1.15. In the case of `Cc1cnc(-c2ccccc2)n1C[C@H]1CCCN(Cc2ccncc2)C1`, the “% Inhibition” value is reported as 7% and the Z score is reported as -1.18. With `COCCN1C[C@]2(CCCN(C(=O)c3ccc(CO)cc3)C2)CCC1=O` the “% Inhibition” value was 1% and the Z score was -0.21. For `COc1nccnc1CNCC1(N2CCOCC2)CC1`, the “% Inhibition” value was 3% and the Z score was -0.48. In the case of `C[C@H](NS(=O)(=O)c1ccc2c(c1)CCN2C(=O)N1CCCC1)C(=O)N1CCc2ccccc21`, the “% Inhibition” value is reported as -11% and the Z score is reported as 1.08. For `COc1ccc(-[n+]2c(-c3ccc(-c4ccccc4)cc3)cn3c2COCC3)cc1`, the “% Inhibition” value was 58% and the Z score was -11.93. For `C[C@@H]1Oc2ccc(NC(=O)N3CCc4nc[nH]c(=O)c4CC3)cc2N(C)C1=O`, the “% Inhibition” value was -3% and the Z score was 0.51. For `COc1cccc(CNC(=O)[C@H](C)n2nc(C)c3c(C)n(-c4ccc(C)cc4)nc3c2=O)c1OC`, the “% Inhibition” value was 7% and the Z score was -1.25. With `CC(C)C(=O)N(Cc1cc(NC(=O)C2CCC2)ccc1N(C)C)C1CC1` the “% Inhibition” value was -9% and the Z score was 1.09. In the case of `C[C@@]1(C2CC2)COCCN1C(=O)c1cccc(Oc2nccs2)c1`, the “% Inhibition” value is reported as 8% and the Z score is reported as -1.04. For `Cc1cc(C(F)(F)F)n(C[C@@H](C)CNc2cnccn2)n1`, the “% Inhibition” value was -2% and the Z score was 0.25. In the case of `CCS(=O)(=O)Oc1cccc(CN(CC2CC2)C(=O)c2ccco2)c1`, the “% Inhibition” value is reported as -18% and the Z score is reported as 1.83. In the case of `Cc1cccc(N(Cc2ccc(C(=O)NCc3ccc(F)cc3)o2)c2nc(-c3ccc(Cl)cc3)cs2)c1`, the “% Inhibition” value is reported as -17% and the Z score is reported as 2.45. For `O=C(CC1CCCCC1)Nc1nc2c(s1)C(=O)C[C@@H](C(=O)N1CCN(C(=O)c3ccco3)CC1)C2`, the “% Inhibition” value was -13% and the Z score was 1.76. With `O=C(O)C[C@@H]1CN(Cc2ccc3c(c2)OCCO3)C[C@@H]1c1c[nH]nn1` the “% Inhibition” value was 0% and the Z score was 0.02. For `O=C(Nc1ccc(F)cc1)c1nnn2c1CO[C@H](c1ccccc1)C2`, the “% Inhibition” value was -2% and the Z score was 0.28. In the case of `CC(C)CC(=O)NCCc1ccc(F)cc1`, the “% Inhibition” value is reported as -6% and the Z score is reported as 1.21. `CCCn1nc(-c2ccc(Cl)s2)cc1C(=O)N1CCN(C(C)=O)CC1` was tested, and the “% Inhibition” value was -6% and the Z score was 1.16. In the case of `CN(Cc1ccc(-n2ccnc2)cc1)Cc1noc2c1CCCC2`, the “% Inhibition” value is reported as -8% and the Z score is reported as 0.91. With `COc1ccc(C(=O)N(Cc2ccc3c(c2)OCO3)Cc2cc(-c3ccc(C)cc3C)on2)cc1` the “% Inhibition” value was -4% and the Z score was 0.53. With `Cc1cccc(C(=O)N2C[C@@H]3CN(CC4CCC4)C[C@]3(C(=O)O)C2)c1` the “% Inhibition” value was -1% and the Z score was 0.16. With `Cc1ccc(C)c(C2CN(C(=O)c3ccc(OC(C)(C)C)cn3)C(C)CO2)c1` (stereo not drawn) the “% Inhibition” value was -8% and the Z score was 1.31. For `CC[C@H](C)S(=O)(=O)NC(=O)c1csc(C2CCCCC2)n1`, the “% Inhibition” value was -10% and the Z score was 1.01. `COc1ccccc1-n1nc(C)c(Cc2ccccc2)c1O` was tested, and the “% Inhibition” value was 31% and the Z score was -3.49. `CCC(NC(=O)NC(C)c1ccncc1)c1nc(C)cs1` (stereo not drawn) was tested, and the “% Inhibition” value was 0% and the Z score was 0. `O=C(NC1CCCCC1)C1CCN(C(=O)c2nnn3c2CO[C@H](c2ccc(Cl)cc2)C3)CC1` was tested, and the “% Inhibition” value was -5% and the Z score was 0.61. `Nc1nnc(CCNC(=O)C2(N3CCOCC3)CCCCC2)s1` was tested, and the “% Inhibition” value was -9% and the Z score was 0.88. For `COc1cncc(-n2cnc3ccccc32)c1`, the “% Inhibition” value was -9% and the Z score was 1.2. In the case of `CCCc1nc(N2CCCN(C(=O)Nc3ccc(C)cc3C)CC2)c2c(-c3cccc(C(F)(F)F)c3)noc2n1`, the “% Inhibition” value is reported as -4% and the Z score is reported as 0.74. For `CC(C)(CO)CCCNC(=O)N1CCCC(C)(C)CC1`, the “% Inhibition” value was -5% and the Z score was 0.65. For `N#Cc1ccccc1-c1ccc(CN2C[C@H]3C[C@H](O)[C@@H](O)C[C@H]3C2)o1`, the “% Inhibition” value was -5% and the Z score was 0.96. In the case of `N#Cc1nc(C2CC2c2ccccc2)oc1NCCc1ccccc1` (stereo not drawn), the “% Inhibition” value is reported as -11% and the Z score is reported as 1.46. In the case of `CC1CN(C(=O)C(C)S(C)(=O)=O)CCO1` (stereo not drawn), the “% Inhibition” value is reported as -8% and the Z score is reported as 1.53. With `COC1CCC(N(C)C(=O)c2cc(C)no2)CC1` (stereo not drawn) the “% Inhibition” value was -8% and the Z score was 0.83. With `Cc1nc(CN2C(=O)C(=O)c3cc(Br)ccc32)cs1` the “% Inhibition” value was 38% and the Z score was -5.11. With `O=C(NCc1cccnc1)c1nn(-c2cccc(C(F)(F)F)c2)c(=O)n(Cc2ccc(F)cc2)c1=O` the “% Inhibition” value was -4% and the Z score was 0.36. `Cc1nc2cc(-c3ccc(C(=O)N4CCNC(=O)CC4)cc3)ccc2s1` was tested, and the “% Inhibition” value was -8% and the Z score was 1.21. In the case of `COc1cccc(C(=O)N(Cc2ccc(C)cc2)c2cccc(CC(=O)N[C@@H](C)c3ccccc3)c2)c1`, the “% Inhibition” value is reported as -8% and the Z score is reported as 1.49. For `CC1=C(c2ccccc2)[C@H]1C(=O)NC1(C(=O)O)CCCC1`, the “% Inhibition” value was 9% and the Z score was -1.17. For `N#Cc1cccc(CN[C@H]2CCCN(O)C2=O)c1`, the “% Inhibition” value was -2% and the Z score was 0.24. With `Cn1cccc1C(=O)NC[C@H](O)c1ccsc1` the “% Inhibition” value was 11% and the Z score was -1.65. In the case of `CC(C)N(CC(N)=O)Cc1cc(Br)ccc1F`, the “% Inhibition” value is reported as -8% and the Z score is reported as 1.1. With `COc1ccccc1NC(=O)N(Cc1cc(Cl)ccc1OS(=O)(=O)c1ccc(F)cc1)C(C)C` the “% Inhibition” value was -9% and the Z score was 1.24. `CCc1nc(CN(CCc2ccc(OC)c(OC)c2)C2CCCCC2)n[nH]1` was tested, and the “% Inhibition” value was -2% and the Z score was 0.23. For `Cc1ccc(CC2(NC(=O)c3cc(C(C)(C)C)nc(=O)[nH]3)CC2)cc1`, the “% Inhibition” value was 4% and the Z score was -0.6. With `Cn1nnc(CN2CCC[C@H]2CN2CCOCC2)n1` the “% Inhibition” value was -14% and the Z score was 2.59. `O=C1C2C(C(=O)N1Cc1ccc(Cl)cc1Cl)C1C=CC2C12CC2` (stereo not drawn) was tested, and the “% Inhibition” value was 8% and the Z score was -1.08. In the case of `Cc1cnc(N2CCC[C@H]2CCc2ccccn2)nc1`, the “% Inhibition” value is reported as 2% and the Z score is reported as -0.29. With `O=C(CCC1CC1)N1CCN(c2ncnc3ccsc23)C[C@@H](O)C1` the “% Inhibition” value was -9% and the Z score was 1.42. For `CN(C)c1cncc(C(=O)NC(C)(C)c2cnn(C)c2)c1`, the “% Inhibition” value was -9% and the Z score was 1.07. `C[C@H]1CC(F)(F)CCN1C(=O)c1ncccc1N` was tested, and the “% Inhibition” value was -5% and the Z score was 1.02. `Cc1nc(CCN)cc(N(C)Cc2csc(C(C)C)n2)n1` was tested, and the “% Inhibition” value was -7% and the Z score was 1.04. For `Cn1ncnc1C1(O)CCN(c2ncnc3ccsc23)CC1`, the “% Inhibition” value was -1% and the Z score was 0.17. `COc1ccc(Nc2nc(N3CCN(C(=O)c4ccco4)CC3)nc3ccccc23)c(OC)c1` was tested, and the “% Inhibition” value was -5% and the Z score was 0.64. `O=C(NC[C@H]1CCCO1)c1ccc(N2CCCCS2(=O)=O)cc1` was tested, and the “% Inhibition” value was -12% and the Z score was 1.6. In the case of `CCCn1nccc1-c1ccc(-n2ccnc2)nn1`, the “% Inhibition” value is reported as 7% and the Z score is reported as -1.37. With `CC[C@@](C)(C#N)NC(=O)c1ccc(C#N)cc1` the “% Inhibition” value was -9% and the Z score was 1.83. With `Cc1cn(-c2c(F)cccc2F)nc1C(=O)N1CC(CO)C1` the “% Inhibition” value was 0% and the Z score was -0.01. In the case of `CN1CCN(C)[C@@H](CNc2ncnc3c2Cc2ccccc2OC3)C1`, the “% Inhibition” value is reported as -6% and the Z score is reported as 0.62. `CNC(=O)c1cccnc1N(C)C[C@H]1CC(=O)N(C2CCCC2)C1` was tested, and the “% Inhibition” value was -2% and the Z score was 0.39. For `O=C(c1cc[nH]c(=O)c1)N1CCCCCC1CC(O)c1ccco1` (stereo not drawn), the “% Inhibition” value was -4% and the Z score was 0.48. In the case of `Cc1ccc(N2C[C@@H](c3nnc(N)o3)CC2=O)cc1`, the “% Inhibition” value is reported as 38% and the Z score is reported as -5.05. In the case of `O=C(Nc1cccc(-c2ncc[nH]2)c1)c1ccc(O)nc1`, the “% Inhibition” value is reported as -7% and the Z score is reported as 0.69. For `Cc1ccc(NC(=O)c2nn[nH]c2[C@@H]2CCCN2)cc1`, the “% Inhibition” value was -4% and the Z score was 0.5. In the case of `COc1ccc(S(=O)(=O)N2C[C@H]3CN(C(=O)Nc4cccc(OC)c4)C[C@@H](C2)O3)cc1`, the “% Inhibition” value is reported as -8% and the Z score is reported as 0.73.
